Results reported in PubChem BioAssay AID504332 (National Center for Advancing Translational Sciences (NCATS), 2011).
The whole screen tested about 350,000 compounds, of which about 31,000 (8.9%) were called active. Inconclusive results, whose numbers are uncertain, are shown with a selection of clear calls. Calls follow the shape of the dose curve; as a rule, active = well fitted inhibition curve with a large enough effect; inconclusive = small, poorly fitted or top-dose-only effect; inactive = no such curve, though single readings can be large or run the other way. Potencies of inconclusive entries are doubtful fits and often do not repeat.

target: Histone-lysine N-methyltransferase EHMT2 (Homo sapiens) (UniProt Q96KQ7); experiment: qHTS Assay for Inhibitors of Histone Lysine Methyltransferase G9a; conditions: G9a H3K9 monomethylation, AlphaScreen, 2 h; activity, negative = inhibition: at 59 µM (top of the series) unless noted; also: nearly all actives have a fitted effect of over 75% in size
Summary of the method: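 G9a (20 nM) preincubated 15 min RT with compounds, then 500 nM biotinylated H3K9 peptide and 20 uM SAM added; 2 h RT reaction. Monomethyl-H3K9 product detected by AlphaScreen with anti-H3K9me1 antibody, streptavidin donor and anti-rabbit IgG acceptor beads.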
% is scaled to controls: 0 for no effect and ±100 for the full control effect; potency is read from the fitted curve at half-maximal effect; tags tell the direction and shape of the fitted curve.

UniProt Q96KQ7, sequence (Q96KQ7 whole entry, looked up): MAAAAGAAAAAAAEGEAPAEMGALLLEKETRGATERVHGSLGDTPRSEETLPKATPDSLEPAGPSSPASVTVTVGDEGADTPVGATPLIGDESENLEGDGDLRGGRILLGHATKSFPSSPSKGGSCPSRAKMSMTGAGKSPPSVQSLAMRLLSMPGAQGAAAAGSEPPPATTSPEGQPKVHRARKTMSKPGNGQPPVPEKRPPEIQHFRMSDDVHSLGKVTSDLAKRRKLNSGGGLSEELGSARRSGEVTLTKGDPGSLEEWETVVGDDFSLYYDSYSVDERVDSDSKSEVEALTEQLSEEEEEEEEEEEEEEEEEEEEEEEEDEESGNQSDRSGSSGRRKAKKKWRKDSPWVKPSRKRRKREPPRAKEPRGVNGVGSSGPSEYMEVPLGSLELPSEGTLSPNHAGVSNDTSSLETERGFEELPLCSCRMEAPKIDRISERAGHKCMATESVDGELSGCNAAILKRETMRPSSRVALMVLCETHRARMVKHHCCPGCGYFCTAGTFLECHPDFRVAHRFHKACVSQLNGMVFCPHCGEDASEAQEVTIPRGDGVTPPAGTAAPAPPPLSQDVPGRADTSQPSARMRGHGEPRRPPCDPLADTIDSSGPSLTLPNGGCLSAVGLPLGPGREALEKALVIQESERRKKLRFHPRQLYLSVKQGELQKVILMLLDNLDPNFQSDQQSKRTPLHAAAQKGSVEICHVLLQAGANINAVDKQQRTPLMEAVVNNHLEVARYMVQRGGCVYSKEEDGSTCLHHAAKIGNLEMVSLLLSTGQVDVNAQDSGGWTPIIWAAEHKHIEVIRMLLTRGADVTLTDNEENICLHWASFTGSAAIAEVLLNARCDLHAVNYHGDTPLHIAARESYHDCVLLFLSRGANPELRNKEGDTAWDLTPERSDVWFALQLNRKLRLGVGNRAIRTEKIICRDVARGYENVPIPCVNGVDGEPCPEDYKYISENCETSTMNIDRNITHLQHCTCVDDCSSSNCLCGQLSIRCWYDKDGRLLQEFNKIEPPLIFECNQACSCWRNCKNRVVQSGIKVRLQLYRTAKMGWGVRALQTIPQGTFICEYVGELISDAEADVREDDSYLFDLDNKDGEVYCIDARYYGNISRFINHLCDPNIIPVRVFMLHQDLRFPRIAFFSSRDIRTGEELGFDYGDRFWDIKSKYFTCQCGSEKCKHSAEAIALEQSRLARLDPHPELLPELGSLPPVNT

SMILES | Potency | activity, negative = inhibition
CC(C)N(Cc1cc2ccccc2[nH]c1=O)C(=O)c1ccco1 | active: 50.1 µM | –
COc1ccc(/C=C(\C#N)C(=O)N=CN(C)C)cc1 | inconclusive: 89.1 µM [inhibitor, partial curve, poor fit] | –
CCN1CCN(c2nc3c(C)cccn3c(=O)c2/C=C(\C#N)S(=O)(=O)c2ccc(Cl)cc2)CC1 | active: 31.6 µM | –
O=C(CSc1nnc(C2CCCCC2)n1Cc1ccccc1)NCc1ccco1 | inconclusive: 89.1 µM [inhibitor, single point] | –
C=CCNC(=S)Nc1ccc(C)cc1[N+](=O)[O-] | inactive | –
Cc1ccc(CCNc2nc3c(S(=O)(=O)c4ccc(C)cc4)nnn3c3ccsc23)cc1 | inactive | –
Cn1c(=O)c2c(ncn2Cc2cccc(Cl)c2)n(C)c1=O | – | inconclusive: -85.4% [inhibitor] [at 0.0925 µM]
CC(C)c1ccc(NC(=O)c2ccc(NC(=O)CCS(=O)(=O)c3cccs3)cc2)cc1 | inactive | –
Cc1ccc(C)c(NC(=S)NC(C)C(c2cccs2)N2CCOCC2)c1 (stereo not drawn) | inconclusive: 89.1 µM [inhibitor, single point] | –
CCOC(=O)c1[nH]c(C)c(CCC(=O)Nc2ccc(N(CC)CC)cc2C)c1C | active: 14.1 µM | –
Oc1ccc(/C=N/Nc2nccnc2Cl)c(O)c1 | inactive | –
COCCNCC(=O)N1c2ccccc2Sc2ccccc21 | inconclusive: 89.1 µM [inhibitor, single point] | –
COC(=O)c1ccc([C@@H](O)[C@H](C)C(=O)CC(=O)OC(C)(C)C)cc1 | inconclusive: 79.4 µM [inhibitor, single point] | –
CCCCn1c2c(c(=N)c3ccccc31)CCC2 | inconclusive: 56.2 µM [inhibitor, partial curve, poor fit] | –
CCS(=O)(=O)N1CC(=O)N(c2cccc(C)c2C)C(C)(C(=O)NC2CCCCC2)C1 (stereo not drawn) | inactive | –
O=C(CCN1CCCCCC1)Nc1ccc2c(c1)OCCO2 | inconclusive: 44.7 µM [inhibitor, partial curve] | –
CC1(C)CC(=NNC(=O)c2n[nH]c3c2CCC3)CC(C)(C)N1 | inconclusive: 31.6 µM [inhibitor, partial curve, poor fit] | –
Cc1csc(NC(=O)Cc2coc3cc(C)c(C(C)C)cc23)n1 | active: 44.7 µM | –
Cc1ccccc1OCC(O)CN (stereo not drawn) | inconclusive: 63.1 µM [inhibitor, partial curve, poor fit] | –
CCCN(Cc1nnc(-c2ccccc2Cl)o1)C(=O)c1oc2ccccc2c1C | inactive | –
Cc1csc(SC(C)C(=O)NCC(=O)Nc2ccc(F)c(F)c2F)n1 (stereo not drawn) | inconclusive: 89.1 µM [inhibitor, single point] | –
Cc1c(NC(=O)c2sc3c([N+](=O)[O-])cccc3c2Cl)cccc1-c1nc2ccccc2o1 | inconclusive: 2.24 µM [inhibitor, full curve] | –
N#Cc1nc(COc2ccc(Br)cc2)oc1NCCN1CCOCC1 | active: 50.1 µM | –

SMILES | Potency | activity, negative = inhibition
COC(=O)c1cc(C(=O)OC)cc(N2C(=O)CC(NNC(=O)c3ccccc3Br)C2=O)c1 (stereo not drawn) | inconclusive: 79.4 µM [inhibitor, single point] | –
Cc1cc(NC(=O)CSc2nc3ccccc3c(=O)n2Cc2ccc(F)cc2)no1 | inactive | –
COC(=O)c1cc2occc2n1Cc1ccc(Cl)cc1 | active: 50.1 µM | –
CCN(CC)CCNC(=O)c1ccc2c(=O)n(C3CCCC3)c(=S)[nH]c2c1 | active: 20 µM | –
CSc1ccc(CCNC(=O)C(C)n2c(C)c3cnn(-c4ccccc4)c(=O)c3c2C)cc1 (stereo not drawn) | inactive | –
Cc1c(C(=O)N2CCN(Cc3ccccc3)CC2)oc2c1C(=O)CC(C)(C)C2 | active: 35.5 µM | –
CN(c1ccccc1)S(=O)(=O)c1cccc(NC(=O)Cn2cnc3c2c(=O)n(C)c(=O)n3C)c1 | inconclusive: 79.4 µM [inhibitor, single point] | –
CC(=O)Nc1ccc(C(=O)OCC(=O)NCCC2=CCCCC2)cc1 | inconclusive: 39.8 µM [inhibitor, partial curve, poor fit] | –
CC(=O)C1=C(O)C(=O)N(c2ccc(S(N)(=O)=O)cc2)C1c1ccccc1F (stereo not drawn) | inconclusive: 89.1 µM [inhibitor, single point] | –
N#C/C(=C\c1cn[nH]c1-c1ccccc1Br)C(=O)O | inconclusive: 44.7 µM [inhibitor, partial curve] | –
CCc1ccc(CNC(=O)CCN2C(=O)COc3ccccc32)cc1 | inactive | –
C#CCOCCOCCOCCNc1nc(N2CCN(C(=O)[C@H]([C@@H](C)CC)n3cc([C@@H](N)Cc4ccc(O)cc4)nn3)CC2)nc(N2CCN(C(=O)[C@H](Cc3cc4ccccc4[nH]3)n3cc([C@@H](N)C(C)CC)nn3)CC2)n1 (stereo partly drawn) | – | inconclusive: -88.3% [inhibitor]
CCCCCC(=O)N1CCN(CCN=CC2=C(O)CC(c3ccc(OC)c(OC)c3)CC2=O)CC1 (stereo not drawn) | – | inconclusive: -80.9% [inhibitor]
COc1ccccc1NC(=O)Nc1nc(-c2cccnc2)nc2ccccc12 | inconclusive: 56.2 µM [inhibitor, partial curve] | –
Cc1ccc(S(=O)(=O)N2CCC(c3nnc(SCCN4CCCC4)n3C)CC2)cc1 | inactive | –
COC(=O)c1ccccc1NC1CC(=O)N(c2c(C)cccc2C)C1=O (stereo not drawn) | inconclusive: 2.51 µM [inhibitor, partial curve, poor fit] | –
CC(C)Cc1nc(N2CCN(C(=O)c3ccccc3)CC2)c(C#N)c2c1CCC2 | – | inactive: 24.1% [at 12.7 µM]
CCCn1c(SCC(=O)Nc2c(C)cccc2CC)nnc1C(C)C | – | inactive: 4.89% [at 12.7 µM]
COc1ccccc1Nc1ncnc2c1c(C)c(C)n2CCCN(C)C | inconclusive: 56.2 µM [inhibitor, partial curve, poor fit] | –
O=C(c1ncn[nH]1)N1CCN(c2nc(-c3ccccc3)cs2)CC1 | inconclusive: 56.2 µM [inhibitor, partial curve, poor fit] | –
COC(=O)c1cc2oc(C)cc2n1CC(=O)Nc1ccc(C)cc1C | inactive | –
Cc1c(CN(C)C)c2c(n1Cc1ccccc1)C(=O)c1ccccc1-2 | – | inconclusive: -95.4% [inhibitor]
CC1CCCN(S(=O)(=O)c2cc(Cl)ccc2Cl)C1 (stereo not drawn) | inconclusive: 1.78 µM [inhibitor, partial curve, poor fit] | –

SMILES | Potency | activity, negative = inhibition
COc1ccc(CCNc2nc(C)cc(C)c2C#N)cc1OC | inconclusive: 1.26 µM [inhibitor, full curve] | –
COc1ccc(-c2[nH]ncc2CN2CCC(c3ccncc3)CC2)cc1F | inactive | –
CCn1c(/C=C/N(C(C)=O)c2ccccc2)[n+](CCCS(=O)(=O)[O-])c2cc(Cl)c(Cl)cc21 | – | inactive: 15.2% [at 12.7 µM]
CC(C)Cc1nc(N2CCN(C(=O)Cc3ccccc3)CC2)c(C#N)c2c1COC(C)(C)C2 | inconclusive: 79.4 µM [inhibitor, single point] | –
COc1ccccc1N(Cc1cc2cccc(C)c2[nH]c1=O)C(=O)c1cccc(Cl)c1 | inconclusive: 1.26 µM [inhibitor, partial curve, poor fit] | –
CCc1cccc2c1NC(=O)C21N2CCCC2C(C(=O)c2ccc3ccccc3c2)C12C(=O)Nc1ccccc12 (stereo not drawn) | inconclusive: 25.1 µM [inhibitor, single point] | –
Cc1ccc(S(=O)(=O)N2CCC(C(=O)Nc3ncccc3O)CC2)cc1 | inactive | –
COc1ccc2nc(-n3c(C)ccc3C)sc2c1 | inconclusive: 0.794 µM [inhibitor, single point] | –
CCN1C(=O)/C(=C/c2cccs2)N(C)C1=S | inconclusive: 3.16 µM [inhibitor, single point] | –
Cc1nc(CNC(=O)CC2C(=O)NCCN2Cc2ccc(F)cc2)cs1 (stereo not drawn) | active: 50.1 µM | –
COc1ccc(CNC(=O)CCCc2cn(C)c3ccccc23)c(OC)c1 | inactive | –
Cc1ccccc1OCCNc1cc(N2CCNCC2)ccc1[N+](=O)[O-] | active: 31.6 µM | –
COc1ccc2oc(C(=O)N(CC(C)C)C3CCS(=O)(=O)C3)c(C)c2c1 (stereo not drawn) | – | inactive: 7.64% [at 0.501 µM]
CCCSCCCNC(=O)Cn1nc(CC)n2c(cc3c(OC)cccc32)c1=O | inconclusive: 2.82 µM [inhibitor, partial curve, poor fit] | –
O=C(C[n+]1cccc2ccccc21)c1ccc([N+](=O)[O-])cc1 | inconclusive: 39.8 µM [inhibitor, partial curve, poor fit] | –
CCOc1ccccc1C(=O)N[C@H](C(=O)Nc1ccc(OC)c(S(=O)(=O)N2CCOCC2)c1)C(C)C | inactive | –
CC(C)CN(C(=O)COC(=O)c1cnccn1)c1c(N)n(Cc2ccccc2)c(=O)[nH]c1=O | inconclusive: 79.4 µM [inhibitor, partial curve, poor fit] | –
COc1cc(C2c3c(-c4cc(Cl)c(C)cc4O)n[nH]c3C(=O)N2Cc2cccnc2)ccc1O (stereo not drawn) | inconclusive: 79.4 µM [inhibitor, partial curve, poor fit] | –
CCNC(=O)CC1C(=O)N(c2ccc(C)cc2)C(=O)N1Cc1ccc(C)cc1 (stereo not drawn) | inactive | –
CCOc1ccc(N(CC(=O)NC2CCCCC2)C(=O)Cn2nnc(-c3ccc(C)o3)n2)cc1 | active: 44.7 µM | –
CCCN1C(=O)/C(=C/C=C2\N(CC)c3ccccc3C2(C)C)SC1=S | inconclusive: 3.55 µM [inhibitor, full curve, poor fit] | –
CC(NC(=O)c1cc([N+](=O)[O-])cc([N+](=O)[O-])c1)c1ccc(-n2ccnc2)cc1 (stereo not drawn) | inconclusive: 50.1 µM [inhibitor, partial curve, poor fit] | –
